# Laboratory results from the supplement of paper PMC8728848.
# The other results are listed elsewhere or left out.
# Key:
# Assay in all cases: glycan array binding signal (z-score within array); higher = stronger binding
# Details in all cases: glycan notation: IUPAC condensed, linker removed
# [1] = target: Gal(b1-4)GlcNAc(b1-3)Gal(b1-4)GlcNAc(b1-3)Gal(b1-4)GlcNAc(b1-3)Gal(b1-4)GlcNAc(b1-3)Gal(b1-4)GlcNAc(b1-2)[Gal(b1-4)GlcNAc(b1-3)Gal(b1-4)GlcNAc(b1-3)Gal(b1-4)GlcNAc(b1-3)Gal(b1-4)GlcNAc(b1-3)Gal(b1-4)GlcNAc(b1-6)]Man(a1-6)[Gal(b1-4)GlcNAc(b1-3)Gal(b1-4)GlcNAc(b1-3)Gal(b1-4)GlcNAc(b1-3)Gal(b1-4)GlcNAc(b1-3)Gal(b1-4)GlcNAc(b1-2)Man(a1-3)]Man(b1-4)GlcNAc(b1-4)[Fuc(a1-6)]GlcNAc
# Summary of the method: (§1)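 Glycan array data were curated from 3228 arrays in the Consortium for Functional Glycomics database and kept only where the protein sequence was available. Glycan names were converted to IUPAC-condensed notation, and columns mapping to the same glycan were averaged. The binding signal is a within-array Z-score, averaged across arrays of the same protein sequence at different concentrations or buffers and across linkers. Negative Z-scores can be read as non-binding.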
# [2] = target: Gal(b1-4)GlcNAc(b1-3)Gal(b1-4)GlcNAc(b1-3)Gal(b1-4)GlcNAc(b1-3)Gal(b1-4)GlcNAc(b1-3)Gal(b1-4)GlcNAc(b1-3)Gal(b1-4)GlcNAc(b1-2)Man(a1-3)[Gal(b1-4)GlcNAc(b1-3)Gal(b1-4)GlcNAc(b1-3)Gal(b1-4)GlcNAc(b1-3)Gal(b1-4)GlcNAc(b1-3)Gal(b1-4)GlcNAc(b1-3)Gal(b1-4)GlcNAc(b1-2)Man(a1-6)]Man(b1-4)GlcNAc(b1-4)GlcNAc
# Summary of the method: as §1
# [3] = target: Gal(b1-4)GlcNAc(b1-3)Gal(b1-4)GlcNAc(b1-3)GalNAc
# Summary of the method: as §1
# [4] = target: Gal(b1-4)GlcNAc(b1-3)Gal(b1-4)GlcNAc(b1-3)[Gal(b1-4)GlcNAc(b1-3)Gal(b1-4)GlcNAc(b1-6)]GalNAc
# Summary of the method: as §1
# [5] = target: Gal(b1-4)GlcNAc(b1-3)Gal(b1-4)GlcNAc(b1-6)[Gal(b1-3)]GalNAc
# Summary of the method: as §1
# [6] = target: Gal(b1-4)GlcNAc(b1-3)Gal(b1-4)[Fuc(a1-3)]GlcNAc(b1-3)Gal(b1-4)[Fuc(a1-3)]GlcNAc
# Summary of the method: as §1
# [7] = target: Gal(b1-4)GlcNAc(b1-3)GalNAc
# Summary of the method: as §1
# [8] = target: Gal(b1-4)GlcNAc(b1-3)[Fuc(a1-3)GlcNAc(b1-6)]Gal(b1-4)Glc
# Summary of the method: as §1
# [9] = target: Gal(b1-4)GlcNAc(b1-3)[Gal(b1-4)GlcNAc(b1-6)]Gal(b1-4)GlcNAc
# Summary of the method: as §1
# [10] = target: Gal(b1-4)GlcNAc(b1-3)[GlcNAc(b1-6)]Gal(b1-4)GlcNAc
# Summary of the method: as §1
# [11] = target: Gal(b1-4)GlcNAc(b1-6)Gal(b1-4)GlcNAc
# Summary of the method: as §1
# [12] = target: Gal(b1-4)GlcNAc(b1-6)GalNAc
# Summary of the method: as §1
# [13] = target: Gal(b1-4)GlcNAc(b1-6)[Gal(b1-3)]GalNAc
# Summary of the method: as §1
# [14] = target: Gal(b1-4)GlcNAc(b1-6)[Gal(b1-4)GlcNAc(b1-3)]GalNAc
# Summary of the method: as §1
# Gal(b1-4)GlcNAc6P = target: Gal(b1-4)GlcNAc6P
# Summary of the method: as §1
# Gal(b1-6)Gal = target: Gal(b1-6)Gal
# Summary of the method: as §1
# Gal3S(b1-3)GalNAc = target: Gal3S(b1-3)GalNAc
# Summary of the method: as §1
# Gal3S(b1-3)GlcNAc = target: Gal3S(b1-3)GlcNAc
# Summary of the method: as §1
# [15] = target: Gal3S(b1-3)[Fuc(a1-4)]GlcNAc
# Summary of the method: as §1
# Gal3S(b1-4)Glc = target: Gal3S(b1-4)Glc
# Summary of the method: as §1
# Gal3S(b1-4)Glc6S = target: Gal3S(b1-4)Glc6S
# Summary of the method: as §1
# Gal3S(b1-4)GlcNAc = target: Gal3S(b1-4)GlcNAc
# Summary of the method: as §1
# [16] = target: Gal3S(b1-4)[Fuc(a1-3)]Glc6S
# Summary of the method: as §1
# [17] = target: Gal3S(b1-4)[Fuc(a1-3)]GlcNAc
# Summary of the method: as §1
# [18] = target: Gal3S(b1-4)[Fuc(a1-3)]GlcNAc6S
# Summary of the method: as §1
# Gal3S4S(b1-4)GlcNAc = target: Gal3S4S(b1-4)GlcNAc
# Summary of the method: as §1
# Gal3S6S(b1-4)GlcNAc = target: Gal3S6S(b1-4)GlcNAc
# Summary of the method: as §1
# Gal3S6S(b1-4)GlcNAc6S = target: Gal3S6S(b1-4)GlcNAc6S
# Summary of the method: as §1
# Gal4S(b1-4)GlcNAc = target: Gal4S(b1-4)GlcNAc
# Summary of the method: as §1
# Gal4S6S(b1-4)GlcNAc = target: Gal4S6S(b1-4)GlcNAc
# Summary of the method: as §1
# Gal6P(b1-4)GlcNAc = target: Gal6P(b1-4)GlcNAc
# Summary of the method: as §1
# Gal6S(b1-3)GlcNAc = target: Gal6S(b1-3)GlcNAc
# Summary of the method: as §1
# Gal6S(b1-3)GlcNAc6S = target: Gal6S(b1-3)GlcNAc6S
# Summary of the method: as §1
# Gal6S(b1-4)Glc = target: Gal6S(b1-4)Glc
# Summary of the method: as §1
# Gal6S(b1-4)Glc6S = target: Gal6S(b1-4)Glc6S
# Summary of the method: as §1
# Gal6S(b1-4)GlcNAc = target: Gal6S(b1-4)GlcNAc
# Summary of the method: as §1
# Gal6S(b1-4)GlcNAc6S = target: Gal6S(b1-4)GlcNAc6S
# Summary of the method: as §1
# GalNAc(a1-3)Gal = target: GalNAc(a1-3)Gal
# Summary of the method: as §1
# GalNAc(a1-3)GalNAc = target: GalNAc(a1-3)GalNAc
# Summary of the method: as §1
# [19] = target: GalNAc(a1-3)GalNAc(b1-3)Gal(a1-4)Gal(b1-4)Glc
# Summary of the method: as §1
# [20] = target: GalNAc(a1-3)GalNAc(b1-3)Gal(a1-4)Gal(b1-4)GlcNAc
# Summary of the method: as §1
# GalNAc(b1-3)Gal = target: GalNAc(b1-3)Gal
# Summary of the method: as §1
# [21] = target: GalNAc(b1-3)Gal(a1-4)Gal(b1-4)GlcNAc
# Summary of the method: as §1
# [22] = target: GalNAc(b1-3)Gal(a1-4)Gal(b1-4)GlcNAc(b1-3)Gal(b1-4)Glc
# Summary of the method: as §1
# [23] = target: GalNAc(b1-3)Gal(a1-6)Gal(b1-4)Glc
# Summary of the method: as §1
binder,measurement,setting,value
Banana lectin (Musa acuminata) (protein) MNGAIKVGAWGGNGGSAFDMGPAYRIISVKIFSGDVVDGVDVTFTYYGKTETRHYGGSGGTPHEIVLQEGEYLVGMAGEVANYHGAVVLGKLGFSTNKKAYGPFGNTGGTPFSLPIAAGKISGFFGRGGKFLDAIGVYLEPLEHHHHHH,glycan array binding signal (z-score),[1],-0.138
same,glycan array binding signal (z-score),[2],-0.137
same,glycan array binding signal (z-score),[3],-0.189
same,glycan array binding signal (z-score),[4],-0.183
same,glycan array binding signal (z-score),[5],-0.294
same,glycan array binding signal (z-score),[6],-0.156
same,glycan array binding signal (z-score),[7],-0.212
same,glycan array binding signal (z-score),[8],-0.233
same,glycan array binding signal (z-score),[9],-0.237
same,glycan array binding signal (z-score),[10],-0.231
same,glycan array binding signal (z-score),[11],-0.217
same,glycan array binding signal (z-score),[12],-0.174
same,glycan array binding signal (z-score),[13],-0.21
same,glycan array binding signal (z-score),[14],-0.229
same,glycan array binding signal (z-score),Gal(b1-4)GlcNAc6P,-0.247
same,glycan array binding signal (z-score),Gal(b1-6)Gal,-0.217
same,glycan array binding signal (z-score),Gal3S(b1-3)GalNAc,-0.209
same,glycan array binding signal (z-score),Gal3S(b1-3)GlcNAc,-0.207
same,glycan array binding signal (z-score),[15],-0.209
same,glycan array binding signal (z-score),Gal3S(b1-4)Glc,-0.209
same,glycan array binding signal (z-score),Gal3S(b1-4)Glc6S,-0.202
same,glycan array binding signal (z-score),Gal3S(b1-4)GlcNAc,-0.227
same,glycan array binding signal (z-score),[16],-0.114
same,glycan array binding signal (z-score),[17],-0.214
same,glycan array binding signal (z-score),[18],-0.207
same,glycan array binding signal (z-score),Gal3S4S(b1-4)GlcNAc,-0.23
same,glycan array binding signal (z-score),Gal3S6S(b1-4)GlcNAc,-0.227
same,glycan array binding signal (z-score),Gal3S6S(b1-4)GlcNAc6S,-0.143
same,glycan array binding signal (z-score),Gal4S(b1-4)GlcNAc,-0.216
same,glycan array binding signal (z-score),Gal4S6S(b1-4)GlcNAc,-0.221
same,glycan array binding signal (z-score),Gal6P(b1-4)GlcNAc,-0.223
same,glycan array binding signal (z-score),Gal6S(b1-3)GlcNAc,-0.197
same,glycan array binding signal (z-score),Gal6S(b1-3)GlcNAc6S,-0.207
same,glycan array binding signal (z-score),Gal6S(b1-4)Glc,-0.208
same,glycan array binding signal (z-score),Gal6S(b1-4)Glc6S,-0.187
same,glycan array binding signal (z-score),Gal6S(b1-4)GlcNAc,-0.197
same,glycan array binding signal (z-score),Gal6S(b1-4)GlcNAc6S,-0.349
same,glycan array binding signal (z-score),GalNAc(a1-3)Gal,-0.205
same,glycan array binding signal (z-score),GalNAc(a1-3)GalNAc,-0.213
same,glycan array binding signal (z-score),[19],-0.229
same,glycan array binding signal (z-score),[20],-0.185
same,glycan array binding signal (z-score),GalNAc(b1-3)Gal,-0.213
same,glycan array binding signal (z-score),[21],-0.215
same,glycan array binding signal (z-score),[22],-0.211
same,glycan array binding signal (z-score),[23],-0.218
